“And” between values parts separate entries of the source, which are not always exact repeats. Identical values can stand only once. Screen size: about 360,000 compounds; about 2,600 (0.72%) were called active. Inconclusive results, whose numbers are uncertain, are shown with a selection of clear calls. Calls come from the whole dose curve; as a rule, active = well fitted inhibition curve with a large enough effect; inconclusive = small, poorly fitted or top-dose-only effect; inactive = no such curve, though single readings can be large or run the other way. Where the call is inconclusive, the potency comes from a doubtful curve fit. A structure can be active in one record and inactive in another.
Test: Primary qHTS for Inhibitors of ATXN expression; note: nearly all actives have a fitted effect of over 55% in size
Conditions: HEK-293 ATXN2-luciferase reporter, luminescence, 24 h; activity change, negative = inhibition: at 57 µM (top of the series)
In short: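 ATXN2-luciferase reporter cells (luciferase flanked by upstream and downstream ATXN2 gene portions) were treated 24 h at 37 °C with compounds at up to 57 uM. SteadyGlo luminescence gave expression; GF-AFC fluorescence gave viability.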
% is set by controls: 0 for no effect and ±100 for the full control effect; potency is the fitted concentration of half-maximal effect; tags give direction and shape of the fitted curve.

| SMILES | Potency | activity change, negative = inhibition |
| --- | --- | --- |
| CCCc1ncc(CN2CCCC(C(=O)Nc3ccc(-c4cccc(OC)c4)cc3)C2)cn1 (configuration not stated) | inconclusive: 39.8 µM [inhibitor, single point] | – |
| CC(=O)n1cc([C@H]2C=C(C(=O)N3CCN(Cc4ccc5c(c4)OCO5)CC3)O[C@@H](OCc3ccc(CO)cc3)C2)c2ccccc21 | inconclusive: 15.8 µM [inhibitor, partial curve, poor fit] | – |
| CCOc1ccccc1NC(=O)Nc1ccc2nc(N3CCN(C)CC3)cc(C)c2c1 | inconclusive: 39.8 µM [inhibitor, single point] | – |
| CCc1nc2c(OCc3ccc(Cl)cc3)cccn2c1N(C)C(=O)c1ccccc1F | inconclusive: 31.6 µM [inhibitor, single point] | – |
| COc1ccc(-c2cc(C)no2)cc1S(=O)(=O)N1CCN(c2ccccn2)CC1 | inconclusive: 31.6 µM [inhibitor, partial curve, poor fit] | – |
| CCOc1ccc(CCNC(=O)CSc2nc3ccccc3nc2Cc2ccc(C)cc2)cc1OCC | inactive | – |
| O=C(Nc1ccn(CCCN2CCN(Cc3cccc4ccccc34)CC2)c(=O)n1)OCc1ccccc1 | active: 28.2 µM | – |
| O=C(O)CSCC(=O)Nc1ccc(C2CCCCC2)cc1 | active: 2.24 µM | – |
| C#CCN1C=CC(=O)[C@@H](OC(=O)Nc2ccc(Br)cc2)[C@H]1c1ccccc1Br | inconclusive: 39.8 µM [inhibitor, partial curve, poor fit] | – |
| Cc1cccc(-c2n[nH]c(=S)n2-c2ccccc2)c1[N+](=O)[O-] | inactive | – |
| Cc1cc(C)nc(N/N=C/c2cc(Br)ccc2O)n1 | inconclusive: 22.4 µM [inhibitor, single point] | – |
| COc1ccc(NC(=O)CN2CCN(c3nc(-c4cccc(OC)c4)cs3)CC2)cc1 | inconclusive: 39.8 µM [inhibitor, single point] | – |
| O/N=C\c1ccccc1Oc1ccc(F)cc1 | inactive | – |
| CC(C)c1ccc(NC(=O)c2ccc3oc(=O)c(S(=O)(=O)c4ccc(F)cc4)cc3c2)cc1 | inconclusive: 3.55 µM [inhibitor, single point] | – |
| Cc1nnc(Nc2ccccc2)n(N)c1=O | inconclusive: 39.8 µM [inhibitor, partial curve, poor fit] | – |
| COc1cc([N+](=O)[O-])cc(/C=N/NC(=O)c2ccc(NC(=O)c3ccc(C)cc3)cc2)c1O | inconclusive: 4.23 µM [inhibitor, full curve, poor fit] | – |
| CCc1ccc(-n2c(SCc3nc(-c4cc(OC)ccc4OC)no3)nnc2-c2ccccc2)cc1 | inactive | – |
| CC1=C(C(=O)N(C(C)C)C(C)C)CC(CC(=O)NCc2ccco2)C(=O)N1Cc1ccc(C(C)(C)C)cc1 (configuration not stated) | inconclusive: 39.8 µM [inhibitor, single point] | – |
| CC(=O)c1cnc(Nc2nc(C)c3cc(C)c(C)cc3n2)nc1C | inactive | – |
| CC1=C(C(=O)N2CCOCC2)CC(CC(=O)NCCCCc2ccccc2)C(=O)N1Cc1ccc(C(C)(C)C)cc1 (configuration not stated) | inconclusive: 35.5 µM [inhibitor, single point] | – |
| CCCCC(=O)Nc1nc(C)c(-c2csc(Nc3cc(OC)ccc3OC)n2)s1 | inconclusive: 31.6 µM [inhibitor, partial curve, poor fit] | – |
| O=C1CC(c2ccccc2)CC(O)=C1C=NCCc1ccccc1 (configuration not stated) | inactive | – |
| O=C(C[C@H]1C(=O)N(Cc2ccccc2)C[C@@H]1Cc1ccccc1)Nc1ccc(Br)cc1 | inconclusive: 39.8 µM [inhibitor, single point] | – |

| SMILES | Potency | activity change, negative = inhibition |
| --- | --- | --- |
| CCOC(=O)c1ccc(N2C(=O)c3[nH]nc(-c4ccc(C)cc4)c3C2c2ccc(O)cc2)cc1 (configuration not stated) | inconclusive: 25.1 µM [inhibitor, single point] | – |
| C(=NN1CCCCCC1)c1ccc2c(c1)OCO2 | inactive | – |
| CC1=C(CC[C@@H](C)CO)OC2CC3C4CCC5CC(O)CCC5(C)C4CC(=O)C3(C)C12 (some centres not stated) | active: 25.1 µM | – |
| Cc1cc(-c2nn3c(C)nnc3s2)ccc1NC(=O)C(C)(C)C | inconclusive: 22.4 µM [inhibitor, single point] | – |
| COCOCCn1cc(CN2CCS(=O)(=O)N(Cc3ccc(-c4ccc(F)cc4)cc3)C(CC(C)C)C2=O)nn1 (configuration not stated) | inconclusive: 25.1 µM [inhibitor, single point] | – |
| O=C(CN1CCc2ccccc2C1)Nc1cc(S(=O)(=O)N2CCOCC2)ccc1N1CCOCC1 | inactive | – |
| CCNc1ccc(Br)cc(C(=O)/C=C/c2ccc(Cl)cc2Cl)c1=O | active: 31.6 µM | – |
| CCOC(=O)/C(=C/c1ccc(OC(=O)c2ccccc2)cc1)C(C)=O | inconclusive: 25.1 µM [inhibitor, partial curve, poor fit] | – |
| CCOC(=O)c1cc(-c2ccccc2)sc1NC(=O)C(C)(C)C | inactive | – |
| CC(=O)Nc1cccc(C(=O)/C=C/c2ccc(F)cc2)c1 | inconclusive: 37.7 µM [inhibitor, single point] | – |
| COc1ccc(N(C)S(=O)(=O)c2ccc3c(c2)CC(C)N3C(=O)C2CC2)c(OC)c1 (configuration not stated) | inconclusive: 28.2 µM [inhibitor, single point] | – |
| COc1ccc(CCN2C(=O)C=CC2=O)cc1OC | inconclusive: 39.8 µM [inhibitor, single point] | – |
| CCC(=O)N1c2ccccc2CC1C(=O)NCCCN1CCN(c2cccc(Cl)c2)CC1 (configuration not stated) | inactive | – |
| Cn1nc(-c2ccc(N3CCCCC3)c(NC(=O)c3ccco3)c2)c2ccccc2c1=O | inconclusive: 28.2 µM [inhibitor, single point] | – |
| O=C(O)c1cccc(N2C(=O)c3cc([N+](=O)[O-])cc4cc([N+](=O)[O-])cc(c34)C2=O)c1 | inconclusive: 7.94 µM [inhibitor, partial curve, poor fit] | – |
| COc1ccc(-c2nn(CC(=O)NCCc3ccccc3)c(=S)n2C)cc1 | inconclusive: 39.8 µM [inhibitor, single point] | – |
| COc1ccc(Cl)cc1NC(=O)c1ccc(CN2C(=O)CCn3nc(C)cc32)cc1 | inconclusive: 20 µM [inhibitor, partial curve, poor fit] | – |
| COC(=O)C1=C(C)N(Cc2ccccc2)C(=NCCc2ccccn2)N[C@H]1c1cccc(F)c1 | inconclusive: 25.1 µM [inhibitor, partial curve, poor fit] | – |
| CS(=O)(=O)NNC(=O)c1csc(Cc2c(Cl)sc3ccc(Cl)cc23)n1 | inconclusive: 3.98 µM [inhibitor, partial curve, poor fit] | – |
| Cn1cnnc1SCC(=O)NNC(=O)COc1ccc(Cl)cc1 | inactive | – |
| Cc1cc(C(=O)CSc2nn3c(=O)c(C(C)(C)C)nnc3s2)c(C)n1C | – | inactive: -4.2% [at 11.3 µM] |
| Cc1cccc2cc(CN(Cc3ccco3)C(=O)c3cccs3)c(=O)[nH]c12 | inactive | – |
| CCOc1cc([C@@H]2C[C@H]3CN(c4ccccc4)C(=O)[C@]34CCCN24)ccc1OC | inconclusive: 10.6 µM [inhibitor, partial curve] | – |

| SMILES | Potency | activity change, negative = inhibition |
| --- | --- | --- |
| O=C(N/N=C/C(Cl)=C/c1ccccc1)c1ccccc1F | inactive | – |
| O=C(NC(=S)N1CCCCCC1)c1ccc(Cl)cc1Cl | inactive | – |
| O=C(Nc1nc(-c2ccccc2)cs1)C1CCCN(S(=O)(=O)c2ccccc2)C1 (configuration not stated) | inconclusive: 35.5 µM [inhibitor, single point] | – |
| CC(=O)Nc1ccc(OCC(O)CN2CCN(c3ccc(Cl)cc3)CC2)cc1 (configuration not stated) | inactive | – |
| O=C1C=C(c2cc3ccccc3s2)C[C@@H](c2ccc(F)cc2)C1 | inactive | – |
| CCc1ccc(OCC(=O)NC(NC(=S)Nc2ccc(C)cc2C)C(Cl)(Cl)Cl)cc1 (configuration not stated) | inconclusive: 39.8 µM [inhibitor, single point] | – |
| Cc1c(C(=O)NCc2ccc(F)cc2)sc(=O)n1Cc1ccc(Cl)c(Cl)c1 | inconclusive: 31.6 µM [inhibitor, single point] | – |
| CCOC(=O)c1c(-c2ccccc2)csc1NC(=S)N(CC)CC | inconclusive: 0.947 µM [inhibitor, full curve, poor fit] | – |
| COC(=O)CC(=O)CSc1nc2cc(C(=O)NC(C)C)ccc2c(=O)n1CCc1ccccc1 | inactive | – |
| CC(=O)c1cccc(NC(=O)C(C)N(C)CC(=O)Nc2ccc(Cl)cc2)c1 (configuration not stated) | inconclusive: 39.8 µM [inhibitor, single point] | – |
| CCN1CCN(Cc2ccc(NC(=O)c3ccc(C)c(NC(=O)C(=O)c4c[nH]c5ccccc45)c3)cc2C(F)(F)F)CC1 | inconclusive: 28.2 µM [inhibitor, single point] and active: 14.1 µM | – |
| CCOC(=O)CCSc1nc(C)cc(C(F)(F)F)c1C#N | inconclusive: 31.6 µM [inhibitor, partial curve, poor fit] | – |
| OC(CNCc1ccccc1)c1ccccc1 (configuration not stated) | inactive | – |
| CC(C)n1nc(-c2ccc3oc(N)nc3c2)c2c(N)ncnc21 | inconclusive: 4.32 µM [inhibitor, partial curve] | – |
| COc1cc(/C=N/NC(=O)c2cccnc2)ccc1OS(=O)(=O)c1cc(C)ccc1C | inconclusive: 31.6 µM [inhibitor, single point] | – |
| CN1CCCCCC1=Nc1ccc([N+](=O)[O-])cc1 | inactive | – |
| O=C1c2cccc3c([N+](=O)[O-])ccc(c23)C(=O)N1c1ccccn1 | active: 14.1 µM | – |
| COc1cc2ccccc2nn1 | inactive | – |
| CN1c2ccccc2N(C)C1(C)c1cccc2ccccc12 | inconclusive: 25.1 µM [inhibitor, single point] | – |
| O=C(N/N=C/C(Br)=C\c1ccccc1)c1cccs1 | inactive | – |
| COc1cc(C)c(Sc2cnc(NC(=O)c3ccc(CNC(C)C(C)(C)C)cc3)s2)cc1C(=O)N1CCN(C(C)=O)CC1 (configuration not stated) | active: 8.63 µM | – |

Reference: PubChem BioAssay AID1745845 (National Center for Advancing Translational Sciences (NCATS), 2022)
